Assay results taken from the supplement of paper PMC3334620.
In all, about 33,000 sequences were measured (“E-score (-0.5 to 0.5)”: median about -0.021, highest 2% from about 0.32 on). The list shows a part of the results.

target: T1, Zap1 (UniProt P47043); experiment: PBM E-score (8-mer binding enrichment) (E-score (-0.5 to 0.5)); higher = stronger / more preferred TF binding; most listed sequences are background and not binding sites; details: protein concentration: 200 nM; construct: GST-full length
T1 sequence: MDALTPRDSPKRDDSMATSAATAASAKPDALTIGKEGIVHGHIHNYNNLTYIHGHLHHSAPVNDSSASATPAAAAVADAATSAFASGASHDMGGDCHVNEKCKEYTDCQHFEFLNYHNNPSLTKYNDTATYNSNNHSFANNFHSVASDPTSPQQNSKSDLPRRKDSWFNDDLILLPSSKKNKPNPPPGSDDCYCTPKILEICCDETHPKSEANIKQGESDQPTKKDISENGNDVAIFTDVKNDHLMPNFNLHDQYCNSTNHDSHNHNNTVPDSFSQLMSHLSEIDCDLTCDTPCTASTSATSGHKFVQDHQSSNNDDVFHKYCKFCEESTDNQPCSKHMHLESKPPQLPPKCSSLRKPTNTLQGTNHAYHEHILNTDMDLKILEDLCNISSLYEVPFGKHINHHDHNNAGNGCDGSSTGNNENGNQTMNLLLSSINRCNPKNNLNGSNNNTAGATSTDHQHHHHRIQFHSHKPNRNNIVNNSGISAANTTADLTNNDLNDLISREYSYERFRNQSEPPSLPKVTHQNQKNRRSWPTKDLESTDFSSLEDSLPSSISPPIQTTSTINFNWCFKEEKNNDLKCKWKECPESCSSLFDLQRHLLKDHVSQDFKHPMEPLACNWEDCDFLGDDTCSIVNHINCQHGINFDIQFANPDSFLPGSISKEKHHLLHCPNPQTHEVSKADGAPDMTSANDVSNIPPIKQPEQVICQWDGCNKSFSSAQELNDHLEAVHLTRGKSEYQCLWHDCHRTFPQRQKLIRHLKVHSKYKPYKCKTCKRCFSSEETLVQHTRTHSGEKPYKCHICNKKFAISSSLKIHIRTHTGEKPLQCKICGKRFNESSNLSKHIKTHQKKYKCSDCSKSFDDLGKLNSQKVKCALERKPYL
How it was run: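 For each ungapped eight-base word taken together with its reverse complement, the Universal PBM Analysis Suite assigned an E-score. Binding data came from GST-tagged yeast transcription factors, applied at about 100-200 nM, on universal all-10-mer Agilent arrays made double-stranded by primer extension. Fluorescent anti-GST marked bound protein, and scans were normalised with masliner.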

First: AAACAGAC
Second: GGTGAATA
The “PBM E-score” value of the first is higher: 0.0939 for the first, 0.00465 for the second.

Going from ACGGACTA to CGCTTAAG, the “PBM E-score” value falls from -0.0835 to -0.206.

Compared with TAACCGAA, GGTAGGAA is lower in “PBM E-score” value: 0.319 for the first, 0.0109 for the second.

First: ATCAAAAT
Second: AACGTTCA
The “PBM E-score” value of the first is higher: 0.0514 for the first, -0.31 for the second.

Going from AGGGCATC to CATGCGTA, the “PBM E-score” value rises from -0.246 to -0.0136.

Going from TGCACGCA to CCAAGAAA, the “PBM E-score” value rises from -0.222 to 0.114.

First: AATACTAA
Second: GGAACCAC
The “PBM E-score” value of the first is higher: 0.121 for the first, 0.0961 for the second.

Compared with CATCCAGG, CACTATAA is higher in “PBM E-score” value: -0.133 for the first, 0.0739 for the second.

Compared with ATATACTC, AGCGTATA is higher in “PBM E-score” value: 0.0106 for the first, 0.0878 for the second.

Going from AAGCCGGC to CCAAGGTC, the “PBM E-score” value rises from -0.182 to 0.224.

First: GCGGTCTA
Second: ACGCAGCT
The “PBM E-score” value of the first is higher: 0.137 for the first, -0.0894 for the second.

Compared with AGCAATTG, GTGACCTA is higher in “PBM E-score” value: 0.0286 for the first, 0.307 for the second.

Going from CGTGGTAG to AAATCCGA, the “PBM E-score” value falls from 0.0289 to -0.0415.

First: CGCTGATC
Second: CCTTGTAC
The “PBM E-score” value of the first is higher: 0.00876 for the first, -0.0336 for the second.

Compared with CCCCATAC, AGCTCAGG is lower in “PBM E-score” value: 0.148 for the first, -0.154 for the second.

Going from AGTTTTGG to CGGTGGAC, the “PBM E-score” value falls from 0.134 to -0.0133.

First: CCTGGAGA
Second: GACATGGA
The “PBM E-score” value of the first is higher: 0 for the first, -0.177 for the second.

First: CCTCCTCC
Second: GATCGATC
The “PBM E-score” value of the first is higher: -0.18 for the first, -0.218 for the second.

First: CACTCGAG
Second: GATGTGAC
The “PBM E-score” value of the first is lower: -0.0649 for the first, 0.0907 for the second.

First: CAACTACA
Second: CCCTGGGA
The “PBM E-score” value of the first is higher: 0.0874 for the first, -0.0527 for the second.

Going from GCCAGCCA to ATGTACCA, the “PBM E-score” value rises from -0.264 to 0.109.

First: AGAAACCC
Second: AGCAGCCA
The “PBM E-score” value of the first is higher: 0.24 for the first, -0.259 for the second.

Going from TAATGTAA to GACTTGAA, the “PBM E-score” value falls from 0.216 to -0.0697.

Compared with CCCTGAAG, AAAGGGAT is lower in “PBM E-score” value: 0.094 for the first, 0.0855 for the second.

Compared with GCTTACAA, AGCCTCGA is lower in “PBM E-score” value: 0.0851 for the first, 0.0348 for the second.

Going from CGTTCTAC to CTCTCCTC, the “PBM E-score” value falls from -0.0565 to -0.25.

Compared with ACCCGCGG, AGAAAGCC is lower in “PBM E-score” value: 0.243 for the first, -0.118 for the second.

Going from CAATGGAG to TACCCGCA, the “PBM E-score” value rises from -0.145 to 0.364.

Going from CAAGAAAA to AGTCACCG, the “PBM E-score” value falls from 0.209 to -0.126.

Going from CTCGGGCA to CGAGCCGA, the “PBM E-score” value rises from -0.108 to -0.0651.

First: ATGACTCC
Second: CTTAGTGA
The “PBM E-score” value of the first is lower: -0.184 for the first, -0.0219 for the second.

Compared with AGACCATA, AAGGGCCG is lower in “PBM E-score” value: 0.191 for the first, -0.00893 for the second.

Going from GGTACCCA to AACATGCC, the “PBM E-score” value falls from 0.411 to -0.132.

Compared with CCGCTACA, ATTACCAA is higher in “PBM E-score” value: -0.0477 for the first, 0.18 for the second.

Compared with GCAAGTCC, AATCGATG is higher in “PBM E-score” value: -0.205 for the first, 0.0352 for the second.

First: AAAGGTAC
Second: TCCCCCGA
The “PBM E-score” value of the first is higher: 0.426 for the first, -0.312 for the second.

First: CATGTCAC
Second: ATACTGAG
The “PBM E-score” value of the first is higher: 0.00341 for the first, -0.0113 for the second.

First: ATGCGAAG
Second: CCAAAATA
The “PBM E-score” value of the first is lower: -0.242 for the first, 0.17 for the second.

Going from AGGTTGCA to ATCCGAGG, the “PBM E-score” value falls from 0.299 to -0.0507.

Going from AAATCGAA to GATGGTTA, the “PBM E-score” value rises from -0.135 to 0.392.

Going from CAGACAAG to CAGGCCAG, the “PBM E-score” value falls from -0.0485 to -0.129.

Compared with CCAGGAGG, CAACAGAA is lower in “PBM E-score” value: 0.0376 for the first, -0.0272 for the second.

First: ATTAGAAG
Second: GGGGGAAA
The “PBM E-score” value of the first is higher: 0.0178 for the first, -0.115 for the second.

Compared with CTAAATGC, AAAGGGAA is higher in “PBM E-score” value: -0.118 for the first, -0.0936 for the second.

Going from CAGTATAC to AACGAATG, the “PBM E-score” value rises from -0.0518 to 0.126.

First: CAAATACG
Second: CGGGGTTC
The “PBM E-score” value of the first is lower: -0.112 for the first, 0.168 for the second.

Going from CAAAGAGC to GGAGCCCC, the “PBM E-score” value rises from -0.115 to -0.0703.

Going from CTTTTCAA to ATTCAGCA, the “PBM E-score” value falls from 0.308 to -0.0462.

First: GAGGTTAC
Second: TGCCCCAA
The “PBM E-score” value of the first is higher: 0.473 for the first, -0.107 for the second.

Going from CGTAGACA to CGCCGAGC, the “PBM E-score” value falls from -0.217 to -0.25.

Going from CCTTGTGC to GAAAATAC, the “PBM E-score” value rises from -0.0645 to -0.0475.

Compared with AAATCATG, CCGTAAAG is lower in “PBM E-score” value: 0.106 for the first, -0.00265 for the second.

Compared with GGCGCCCA, CTGGTGGA is lower in “PBM E-score” value: -0.131 for the first, -0.225 for the second.

Compared with CCAACGGA, AGCGCACT is lower in “PBM E-score” value: -0.179 for the first, -0.293 for the second.

First: ACCATCGG
Second: AACGATCT
The “PBM E-score” value of the first is higher: 0.15 for the first, -0.09 for the second.

First: ATACAGGA
Second: GCTACTCA
The “PBM E-score” value of the first is lower: -0.0579 for the first, 0.00318 for the second.

First: ACCGCGTA
Second: CTCAACTC
The “PBM E-score” value of the first is higher: 0.155 for the first, 0.0636 for the second.

First: AGAAACTC
Second: CCGGTCAC
The “PBM E-score” value of the first is lower: -0.0693 for the first, 0.222 for the second.

Going from AGGGACCA to GCTCCGCC, the “PBM E-score” value falls from -0.0766 to -0.185.

Going from AGTCTACC to ACTGTTAG, the “PBM E-score” value rises from -0.00157 to 0.00029.

First: GCACGAGC
Second: ACGTTCGG
The “PBM E-score” value of the first is lower: -0.184 for the first, -0.107 for the second.

First: AGAAACAT
Second: GCATAGAC
The “PBM E-score” value of the first is higher: 0.167 for the first, -0.117 for the second.

Going from CACTAACC to GACACCCC, the “PBM E-score” value falls from 0.151 to 0.0571.

Going from AGGACAGC to CGAAGTGA, the “PBM E-score” value rises from -0.164 to 0.00648.

Compared with ACAAGTGA, GCGTACTA is lower in “PBM E-score” value: -0.114 for the first, -0.121 for the second.

Going from AAGACGAT to ATGAGCAA, the “PBM E-score” value rises from -0.118 to -0.0417.

Going from AGCGCGCC to AGATGCCT, the “PBM E-score” value falls from -0.173 to -0.226.

First: CAAATCAC
Second: AGTAAACG
The “PBM E-score” value of the first is higher: -0.0481 for the first, -0.0697 for the second.

Going from CGATGAAA to CATATGGG, the “PBM E-score” value rises from 0.0264 to 0.118.

First: GCGCCAAA
Second: GTCGCACA
The “PBM E-score” value of the first is lower: -0.0448 for the first, 0.0353 for the second.

First: GCCTCCGC
Second: CCTCGGAC
The “PBM E-score” value of the first is higher: -0.0269 for the first, -0.0866 for the second.

Compared with ACTCGACG, CCGATTAA is higher in “PBM E-score” value: -0.103 for the first, -0.00812 for the second.

Going from GCCGTCCC to AATACTTC, the “PBM E-score” value rises from -0.223 to -0.124.

Compared with ACATCGTC, CATTGTCC is higher in “PBM E-score” value: -0.125 for the first, 0.0125 for the second.

First: ACCTCTAC
Second: GGACCCCA
The “PBM E-score” value of the first is higher: 0.259 for the first, 0.213 for the second.

First: CGGTGCAG
Second: GAGAGGTA
The “PBM E-score” value of the first is lower: -0.193 for the first, 0.243 for the second.

First: CAACTTTC
Second: CTCTTTGC
The “PBM E-score” value of the first is higher: 0.0376 for the first, -0.0604 for the second.

First: AACAGTTC
Second: GTTAACAA
The “PBM E-score” value of the first is lower: -0.00882 for the first, 0.095 for the second.

Going from AAGACGGA to CTCGACCC, the “PBM E-score” value rises from 0.0457 to 0.0825.

Going from TATCTGAA to GAAGAGAA, the “PBM E-score” value falls from 0.0676 to -0.0643.

Going from AATTTCGA to ATAGGAGC, the “PBM E-score” value rises from -0.179 to -0.15.

Compared with GTAGATTA, CTAGACAC is lower in “PBM E-score” value: 0.291 for the first, -0.174 for the second.

First: CCTAATTC
Second: ATAGGCTA
The “PBM E-score” value of the first is lower: -0.0585 for the first, -0.0389 for the second.

Going from AAAAACCG to TGCAGGAA, the “PBM E-score” value falls from 0.227 to 0.118.

Compared with AAGCACTA, CACTAGGA is lower in “PBM E-score” value: -0.0287 for the first, -0.102 for the second.

First: TATTGGCA
Second: GCTCCTTA
The “PBM E-score” value of the first is higher: -0.00632 for the first, -0.303 for the second.
